40 molecules from the antibiotic and cytotoxicity screens of Wong et al. (2023) can be followed below.

Molecules are shown by their SMILES. Some of the results follow.

In the test the test system is S. aureus RN4220. Kind of test: growth inhibition call (relative growth <= 0.2). The conditions noted are these: 50 µM.
For the molecule `C[C@@H]1CN([C@@H](C)CO)S(=O)(=O)c2ccc(C#C[C@@H](C)O)cc2O[C@@H]1CN(C)C(=O)C1CCCCC1`, the growth inhibition call was “inactive”.
The result for `CCn1c(=S)[nH]c2ccccc21` reads “inactive”.
The result for `Cc1ccc(-c2cnc3c(c2)C(=O)N([C@H](C)CO)C[C@H](C)[C@@H](CN(C)C(=O)Cc2cccnc2)O3)cc1` reads “inactive”; that for `O=C(C[C@H]1CC[C@H]2[C@@H](COC[C@@H](O)CN2C(=O)Nc2cccc(F)c2)O1)NCCCN1CCOCC1`, “inactive”.
The result for `NC(Cc1cc(I)c(Oc2cc(I)c(O)c(I)c2)c(I)c1)C(=O)[O-].[Na+]` (stereo not given) reads “inactive”.
For the molecule `C[C@H](CO)N1C[C@H](C)[C@H](CN(C)Cc2ccc(C(=O)O)cc2)Oc2ccc(NC(=O)Cn3cnnn3)cc2C1=O`, the growth inhibition call was “inactive”.
The result for `COc1ccccc1S(=O)(=O)N[C@H]1C=C[C@H](CC(=O)N2CCN(C)CC2)O[C@@H]1CO` reads “inactive”; that for `CC(C)Cn1c(N)cc(=O)n(C)c1=O`, “inactive”; that for `C=CCN1[C@H](Cc2ccccc2)[C@@H](c2cn(CCCCNC(=O)C(=O)NC)nn2)Oc2ccccc2S1(=O)=O`, “inactive”.
The entry for `C[C@H](CO)N1C[C@H](C)[C@@H](CN(C)Cc2ccccc2)Oc2ccc(NC(=O)Nc3ccc(C(F)(F)F)cc3)cc2C1=O` is “inactive”; for `COc1cc(/C=C/C(=O)N2CCC=CC2=O)cc(OC)c1OCCOCCOCCOCCC(=O)OC(C)(C)C` it is “inactive”.
The entry for `C=CCn1c(=O)c2c(OC)ccnc2n(C)c1=O` is “inactive”; for `CCCCC/C=C/CCC(=O)N[C@H]1[C@H](Oc2c3cc4cc2Oc2ccc(cc2Cl)[C@@H](O[C@@H]2O[C@H](CO)[C@@H](O)[C@H](O)[C@H]2NC(C)=O)[C@@H]2NC(=O)[C@H](NC(=O)[C@@H]4NC(=O)[C@H]4NC(=O)[C@@H](Cc5ccc(c(Cl)c5)O3)NC(=O)[C@H](N)c3ccc(O)c(c3)Oc3cc(O)cc4c3)c3ccc(O)c(c3)-c3c(O[C@H]4O[C@H](CO)[C@@H](O)[C@H](O)[C@@H]4O)cc(O)cc3[C@@H](C(=O)O)NC2=O)O[C@H](CO)[C@@H](O)[C@@H]1O` it is “active”; for `c1cc(CCN2CCNCC2)ccn1` it is “inactive”.
For `COC(=O)C[C@@H]1CC[C@@H]2[C@H](COc3ccc(NS(=O)(=O)c4ccccc4Cl)cc3C(=O)N2C)O1`, the growth inhibition call is “inactive”.
The entry for `COc1ccc2c3c(n(c2c1)C)[C@@H](CO)N(Cc1cc(cc(c1)OC)OC)C[C@]13CN(C1)C(=O)NC(C)C` is “inactive”.
The entry for `O=C1NC2=C(C(=O)OC2)[C@H](c2ccccc2)N1` is “inactive”; for `C[C@@H]1CCCCO[C@@H](CN(C)Cc2ccc(Cl)c(Cl)c2)[C@H](C)CN([C@@H](C)CO)C(=O)c2cc(NS(=O)(=O)c3ccc(F)cc3)ccc2O1` it is “inactive”; for `NC(=O)[C@@H]1C(=O)C[C@@H]2C[C@@H]3Cc4cccc(O)c4C(=O)[C@@H]3C(=O)[C@]2(O)C1=O` it is “inactive”.
The result for `C[C@H]1CN([C@@H](C)CO)C(=O)Cc2cc(NC(=O)Nc3ccc4c(c3)OCO4)ccc2O[C@H]1CN(C)C(=O)Nc1cccc2ccccc12` reads “inactive”; that for `Cc1ccc(S(=O)(=O)N(C)C[C@@H]2Oc3ccc(NS(=O)(=O)c4ccc(F)cc4)cc3CC(=O)N([C@@H](C)CO)C[C@H]2C)cc1`, “inactive”; that for `C[C@H](CO)N1C[C@H](C)[C@H](CN(C)Cc2cncnc2)Oc2cc(-c3ccccc3F)ccc2S1(=O)=O`, “inactive”.
For `O=C1C2CC3CC1CC(O)(C3)C2`, the growth inhibition call is “inactive”.
The result for `COc1ccc(CN(C)C[C@@H]2OCCCC[C@H](C)Oc3ccc(NS(=O)(=O)c4cccs4)cc3C(=O)N([C@H](C)CO)C[C@@H]2C)cc1` reads “inactive”.
On to `COc1ccc2c3c(n(c2c1)C)[C@H](CO)N(C[C@]13CN(C1)C(=O)c1ccncc1)C(=O)C1CCCCC1`, for which the growth inhibition call is “inactive”.
For the molecule `C[C@H](CO)N1C[C@H](C)[C@H](CN(C)CC2CCCCC2)Oc2c(NC(=O)Nc3cccc4ccccc34)cccc2C1=O`, the growth inhibition call was “inactive”.
The entry for `C[C@@H]1CN([C@H](C)CO)S(=O)(=O)c2ccc(C#CCN(C)C)cc2O[C@H]1CN(C)C(=O)C1CCCCC1` is “inactive”; for `CCCNC(=O)C[C@@H]1CC[C@H]2[C@H](COc3ccc(NC(=O)c4ccc5c(c4)OCO5)cc3C(=O)N2C)O1` it is “inactive”.
The entry for `C[C@H](CO)N1C[C@H](C)[C@H](CN(C)C(=O)NC2CCCCC2)Oc2ccc(NC(=O)Nc3ccc(C(F)(F)F)cc3)cc2C1=O` is “inactive”; for `COc1ccc(CN(C)C[C@H]2OCCCC[C@@H](C)Oc3ccc(NS(=O)(=O)c4ccccc4)cc3C(=O)N([C@H](C)CO)C[C@H]2C)cc1` it is “inactive”.
The entry for `COc1ccc(C2=CCCC2)cc1` is “inactive”.
On to `Cc1ccc(S(=O)(=O)N(C)C[C@@H]2Oc3c(NS(C)(=O)=O)cccc3C(=O)N([C@H](C)CO)C[C@H]2C)cc1`, for which the growth inhibition call was “inactive”.
The result for `C[C@H](CO)N1C[C@H](C)[C@H](CN(C)Cc2ccc3c(c2)OCO3)Oc2c(NC(=O)Nc3cccc4ccccc34)cccc2C1=O` reads “inactive”.
The result for `C[C@@H]1CN([C@H](C)CO)C(=O)c2ccccc2-c2ccccc2CO[C@@H]1CN(C)Cc1ccccc1C(F)(F)F` reads “inactive”; that for `COc1ccc(S(=O)(=O)N(C)C[C@@H]2OCCCC[C@@H](C)Oc3ccc(NS(C)(=O)=O)cc3C(=O)N([C@@H](C)CO)C[C@H]2C)cc1`, “inactive”; that for `COc1ccc(-c2cnc3c(c2)C(=O)N([C@@H](C)CO)C[C@H](C)[C@@H](CN(C)C(=O)Cc2ccccn2)O3)cc1`, “inactive”.
The result for `Cc1noc(C)c1S(=O)(=O)Nc1ccc2c(c1)C(=O)N([C@H](C)CO)C[C@H](C)[C@H](CN(C)C(=O)NC(C)C)O2` reads “inactive”; that for `COCCNC(=O)C[C@H]1C[C@H]2c3cc(NC(=O)Nc4ccc(C(F)(F)F)cc4)ccc3O[C@H]2[C@@H](CO)O1`, “inactive”.
As to `C[C@@H]1CCCCO[C@H](CN(C)C(=O)c2ccncc2)[C@H](C)CN([C@@H](C)CO)C(=O)c2cc(NS(=O)(=O)c3cn(C)cn3)ccc2O1`, the growth inhibition call was “inactive”.
The entry for `O=C(C[C@@H]1CC[C@@H]2[C@H](COC[C@H](O)CN2C(=O)c2ccccc2F)O1)N1CCN(c2ccccc2)CC1` is “inactive”.
